Measurements from paper PMC4336329 (PLoS ONE, 2015).
Out of some 310,000 compounds screened, about 14,000 (4.5%) showed an effect of 50% or more. Effects have a minus sign here. The list shows a part of the results.

What follows are compounds tested against human ether-à-go-go-related gene (hERG) potassium channel (human, UniProt Q12809) (assay: primary screen, population patch clamp on CHO cells stably expressing hERG).
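Further: peak tail current of the secondary pulse compared with the same well before compound.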

Chain of human ether-à-go-go-related gene (hERG) potassium channel (Q12809 whole entry, looked up): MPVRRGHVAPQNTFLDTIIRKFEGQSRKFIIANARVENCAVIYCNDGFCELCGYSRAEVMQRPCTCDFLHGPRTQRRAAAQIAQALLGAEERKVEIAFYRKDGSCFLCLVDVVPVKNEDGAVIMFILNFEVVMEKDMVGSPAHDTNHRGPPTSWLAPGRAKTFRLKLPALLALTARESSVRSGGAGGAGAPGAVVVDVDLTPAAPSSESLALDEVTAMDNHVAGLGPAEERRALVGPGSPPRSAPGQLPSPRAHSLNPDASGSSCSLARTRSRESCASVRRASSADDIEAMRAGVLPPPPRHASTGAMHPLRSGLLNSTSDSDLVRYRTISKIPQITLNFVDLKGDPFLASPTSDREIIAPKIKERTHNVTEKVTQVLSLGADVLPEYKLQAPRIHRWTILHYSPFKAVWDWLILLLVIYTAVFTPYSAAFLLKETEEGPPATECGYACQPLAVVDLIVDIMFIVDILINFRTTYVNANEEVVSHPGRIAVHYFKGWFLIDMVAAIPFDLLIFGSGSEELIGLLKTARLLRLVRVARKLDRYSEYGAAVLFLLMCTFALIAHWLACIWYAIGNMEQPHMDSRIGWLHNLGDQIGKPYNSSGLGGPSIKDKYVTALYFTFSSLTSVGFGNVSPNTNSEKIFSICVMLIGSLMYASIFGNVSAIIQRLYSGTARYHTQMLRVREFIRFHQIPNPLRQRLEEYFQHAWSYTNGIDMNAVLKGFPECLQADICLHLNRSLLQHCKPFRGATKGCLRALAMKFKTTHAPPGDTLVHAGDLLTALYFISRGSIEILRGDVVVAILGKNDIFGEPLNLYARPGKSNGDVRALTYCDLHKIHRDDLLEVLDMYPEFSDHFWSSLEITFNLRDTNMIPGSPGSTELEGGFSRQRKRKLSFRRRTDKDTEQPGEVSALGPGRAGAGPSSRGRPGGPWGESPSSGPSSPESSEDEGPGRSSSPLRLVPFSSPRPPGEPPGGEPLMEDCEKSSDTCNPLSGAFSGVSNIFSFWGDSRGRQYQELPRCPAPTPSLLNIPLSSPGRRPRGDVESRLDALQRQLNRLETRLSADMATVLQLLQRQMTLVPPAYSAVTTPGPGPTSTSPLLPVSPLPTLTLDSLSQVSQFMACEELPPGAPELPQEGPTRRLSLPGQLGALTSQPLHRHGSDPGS

| Structure (SMILES) | hERG current change (%, negative = inhibition) at 10uM |
| --- | --- |
| CCOc1cc(N2CCOCC2)c(OCC)cc1NC(=O)CSc1ncn[nH]1 | 10.5% |
| Oc1ccc(-c2cccc(-c3ccc(O)cc3)n2)cc1 | 15.5% |
| O=c1cnnc(N/N=C/c2ccc3c(c2)OCO3)[nH]1 | 7.7% |
| COc1ccc(CCn2c(=N)c(C(=O)NCC3CCCO3)cc3c(=O)n4ccccc4nc32)cc1OC (centres unmarked) | -75.9% |
| CC(=O)Nc1cc(-n2cnnn2)ccc1C | 22.7% |
| COC(=O)c1sc(NC(=S)NC(=O)c2ccccc2C)nc1C | 17.6% |
| C[C@H](C(=O)O)c1n[nH]c(=O)c2ccccc12 | 11.7% |
| Cn1c(SCC(=O)N2CCCCCC2)nc2c(c1=O)SCC2 | 8.65% |
| CCC(C)(C(=O)NC1CCCC1)N(CC1CCCO1)C(=O)CNC(=O)c1ccccc1 (centres unmarked) | 0.197% |
| COc1ccc(C2(C(=O)NCCN3CCOCC3)CCOCC2)cc1 | 1.89% |
| Oc1ccc(/C=N/Nc2cc(N3CCOCC3)nc(N3CCOCC3)n2)cc1O | -12.2% |
| COc1ccc(-c2ccnc3nc(Sc4ncc(C(F)(F)F)cc4Cl)nn23)cc1 | -19% |
| Cc1cc(C)nc(SCC(=O)N(C)C)n1 | 12.8% |
| Cc1ccc(-c2nn(-c3ccccc3Cl)cc2C(=O)NCC2CCCO2)cc1 (centres unmarked) | -0.0276% |
| O=C(COc1ccc(Cl)cc1)NN=C1CCCCCCC1 | -9.94% |
| O=C(c1ccc(=O)[nH]n1)N1CCN(S(=O)(=O)c2ccc(C(F)(F)F)cc2)CC1 | -15.5% |
| CCOc1ccc(S(=O)(=O)NCCC(=O)N2CCC(Cc3ccccc3)CC2)cc1 | -17.9% |
| CC(ON1CC1(C(F)(F)F)C(F)(F)F)(C(N)=O)C(N)=O (centres unmarked) | 4.55% |
| O=C(NCCC1=CCCCC1)c1ccc(F)c(S(=O)(=O)N2CCOCC2)c1 | 7.24% |
| CN(c1ccc(C(=O)Nc2ccc(S(=O)(=O)N3CCCC3)cc2)cc1)S(C)(=O)=O | 26.9% |
| Cc1[nH]n(C(N)=S)c(=O)c1N=Nc1ccc(S(=O)(=O)N2CCCCCC2)cc1 | -9.6% |
| COc1cc(CCC(=O)OCC(=O)c2ccc[nH]2)cc(OC)c1OC | -2.96% |
| CCCc1nn(C)c(C(N)=O)c1[N+](=O)[O-] | 6.34% |

| Structure (SMILES) | hERG current change (%, negative = inhibition) at 10uM |
| --- | --- |
| CCCN(CCC)c1nc(-c2ccccn2)nc2ccccc12 | -74.4% |
| O=C(Nc1ccc(F)c([N+](=O)[O-])c1)C(=O)c1c(O)[nH]c2ccccc12 | 12.4% |
| COC(=O)c1sccc1NC(=S)Nc1ccc(F)cc1 | 16.1% |
| CCOC(=O)C1CCCN(Cc2c(Cl)cccc2Cl)C1 (centres unmarked) | -6.47% |
| Cc1ccc(-c2cc(C(=O)NN=C3CCCC3)c3ccccc3n2)cc1 | 4.39% |
| CC(=O)c1ccc(NC(=O)CN(C)CC(=O)Nc2cccc(F)c2)cc1 | -18.5% |
| CCn1c(=O)c([N+](=O)[O-])c(N2CCOCC2)c2ccccc21 | -7.79% |
| N#Cc1cc(-c2ccccc2)oc1NC(=O)c1ccccc1 | 8.6% |
| Cc1ccc(OCC(=O)Nc2ccc(S(=O)(=O)Nc3onc(C)c3C)cc2)cc1 | 7.72% |
| C[C@H](NC(=O)c1[nH]cnc1C(=O)Nc1ccon1)c1ccccc1 | 23.5% |
| COC(=O)c1cc(S(=O)(=O)NCC2CCN(CCc3cccs3)CC2)c[nH]1 | -51.1% |
| Cc1cccc(N2CCN(C(=O)CC(NC(=O)c3ccccc3Cl)c3ccccc3)CC2)c1C (centres unmarked) | -59.9% |
| CCCc1c(C)c2cccc(C)c2[nH]c1=O | -2.27% |
| Cc1ccc(-c2cc(C(=O)N3CCN(c4ncccn4)CC3)c3ccccc3n2)cc1 | -40.9% |
| O=C(NCC(=O)N(c1ccc(F)cc1)C(C(=O)NC1CCCCC1)c1ccncc1)c1ccco1 (centres unmarked) | 10.7% |
| CN(C)S(=O)(=O)N1CCN(CC(O)COc2ccc(-c3ccccc3)cc2)CC1 (centres unmarked) | -27.3% |
| S=C(NC1CCCC1)N1CCN(c2cccc(Cl)c2)CC1 | -0.877% |
| Cc1ccc(S(=O)(=O)N2CCN(CC(=O)N(CC(C)C)c3c(N)n(CC(C)C)c(=O)[nH]c3=O)CC2)c(C)c1 | 12.7% |
| CCCc1nc2sc3ccccc3c(=O)c2c(=O)n1Cc1ccc(OC)cc1 | 5.49% |
| CCNc1nc(N)c(C(=O)C23CC4CC(CC(C4)C2)C3)s1 | -11.8% |
| CCC(C(=O)NCc1ccc(F)cc1)N(Cc1cccs1)C(=O)c1snc(C(N)=O)c1N (centres unmarked) | -45.7% |
| COc1ccc(C2c3[nH]c4ccccc4c3CCN2CCCn2cccn2)cc1C (centres unmarked) | -38.9% |
| Cn1c(N)c(C(=O)COC(=O)/C=C/c2cccc(F)c2)c(=O)n(C)c1=O | -38.4% |

| Structure (SMILES) | hERG current change (%, negative = inhibition) at 10uM |
| --- | --- |
| CC(C)(C)c1ccc(C(=O)CCC(=O)NCc2ccccc2)cc1 | -25.2% |
| CCN(CC)S(=O)(=O)c1ccc2c(c1)c(=O)c(C(=O)NCCOC)cn2C | -2.75% |
| COc1cc(C(=O)OCC(=O)Nc2cc(C)on2)ccc1OCc1ccccc1Cl | 5.19% |
| CCCCOC(=O)Nc1ccc(C(=O)OC)cc1 | 11.7% |
| CC(=O)c1ccc(NC(=O)CNCc2cccs2)cc1.O=C(O)C(=O)O | -0.848% |
| CCCCC(O)(CCCC)C(=O)NNc1ccccc1 | 10.5% |
| C=CCn1c(/N=C/c2ccc(N(C)C)cc2)nc2ccccc21 | -6.42% |
| O=C(NCCO)C(O)C(O)C(=O)NCCO (centres unmarked) | 7.53% |
| CCOCCCNC(=O)C(c1ccc(OC)cc1)N(Cc1cccs1)C(=O)c1ccccn1 (centres unmarked) | -2.44% |
| Cc1ccc(NC(=O)C(=O)NCCc2c[nH]c3ccccc23)c(C)c1 | -12.5% |
| COc1ccc(C2CCCN2C(=O)Nc2ccc(C)c(C)c2)cc1OC (centres unmarked) | -18.5% |
| N/C(=N\OC(=O)COc1ccc2ccccc2c1Br)c1ccncc1 | 5.98% |
| CC(C)N1CN(c2ccccc2)C(=S)N(c2ccccc2)C1 | 7.3% |
| CCOC(=O)CNC(=O)CSc1nnnn1-c1ccc(C)c(C)c1 | -2.8% |
| Cc1ccc(NC(=S)N(CCCN2CCOCC2)Cc2ccccn2)cc1 | -22.8% |
| O=C(CCS(=O)(=O)c1ccc(Br)s1)NCc1ccc2c(c1)OCO2 | -14% |
| O=C(NNC(=O)C(c1ccccc1)c1ccccc1)c1cccs1 | 23.8% |
| COC(=O)N/N=C/c1ccc(-c2cccc(Cl)c2)o1 | -3.5% |
| O=C(Nc1ccccc1O)c1cc2cc(Br)ccc2oc1=O | 13.4% |
| COC(=O)CC1NCCNC1=O (centres unmarked) | 11.7% |
| CC(C)c1nnc(NC(=O)c2nc(S(=O)(=O)Cc3ccccc3F)ncc2Cl)s1 | -5.79% |
| COCCn1c(-c2ccccc2Cl)nc2c(c(=O)c3ccccc3n2C)c1=O | -12.2% |
| CCOC(=O)CSC1=N/C(=C/c2ccc(-n3cncn3)cc2)C(=O)N1C(C)=O | -0.255% |

| Structure (SMILES) | hERG current change (%, negative = inhibition) at 10uM |
| --- | --- |
| COCc1[nH]nc2c1C1(CCC3(CC1)OCCO3)C(C#N)=C(N)O2 | 3.17% |
| Cn1c2c(c(=O)c3ccccc31)CCC(C)(C)O2 | -3.57% |
| COc1cc(/C=C/C(=O)O)ccc1OCc1ccc([N+](=O)[O-])cc1 | 21.8% |
| O=[N+]([O-])c1cc(S(=O)(=O)N2CCCC2)ccc1OCCOc1ccccc1 | -32.4% |
| CCn1c2ccc(CC(=O)O)cc2c2cc(CC(=O)O)ccc21 | 8% |
| C#CCN(C(=O)c1ccc(OC2CCN(Cc3ccccn3)CC2)cc1)C1CCCCC1 | -39.6% |
| CCCCCNC(=O)C1CCC(Cn2c(=S)[nH]c3ccccc3c2=O)CC1 (centres unmarked) | 13.5% |
| N#CC(C(=O)Nc1ccc(Cl)cc1)=C1Nc2ccccc2N1 | 8.33% |
| COc1cc(Cl)nn(-c2ccccc2)c1=O | 1.61% |
| CC1CCCN(C(=O)Cc2cccc3ccccc23)C1 (centres unmarked) | 8.56% |
| COc1ccc(C(=O)C2CCCN(C(=O)c3ccc4cc[nH]c4c3)C2)c(C)c1 (centres unmarked) | -1.25% |
| CCOC(=O)CCN1C(=O)c2ccccc2Sc2ncccc21 | 12.5% |
| CCOC(=O)c1cccc(NS(=O)(=O)Cc2ccccc2)c1 | 1.95% |
| COC(=O)C(C)NC(=O)C12CC3CC(C1)CC(c1ccc(C)cc1)(C3)C2 (centres unmarked) | -20.9% |
| Cc1cccc(N2CCN(S(=O)(=O)c3cccs3)CC2)c1C | -15.8% |
| CCN1C[C@]2(COC)CC[C@H](OC)[C@@]34C1[C@]1(OCO[C@@]15C[C@H](OC)[C@H]1C[C@@H]3[C@@H]5[C@H]1OC)[C@@H](O)[C@H]24 | 10.5% |
| O=C(c1ccc2c(=O)n3c(nc2c1)CCCCC3)N1CCc2ccccc21 | -48.3% |
| CCN(CC)C(=O)CSc1ccccc1N | 13% |
| Nc1c(C(=O)Nc2ccccc2)nnn1-c1ccc2c(c1)OCCO2 | 16.1% |
| Cc1ccc(/C=N/NC(=O)Cn2cnc3ccccc32)o1 | 3.48% |
